The other results are listed elsewhere or left out.
biological target: T1, MBP-FoxP1dN (Mus musculus, UniProt P58462 326-579); assay: PD-seq (MBP pull-down with sequencing); 20 mM Tris-HCl pH 7.5, 100 mM NaCl, 1.5 mM MgCl2, 0.4 uM protein, 0.1 uM dsDNA library, 30 min, room temperature, amylose pull-down; high values mean tight binding; conditions: protein: recombinant; tags: His6-MBP; chain copies: 2; dsDNA, one strand shown
T1 sequence: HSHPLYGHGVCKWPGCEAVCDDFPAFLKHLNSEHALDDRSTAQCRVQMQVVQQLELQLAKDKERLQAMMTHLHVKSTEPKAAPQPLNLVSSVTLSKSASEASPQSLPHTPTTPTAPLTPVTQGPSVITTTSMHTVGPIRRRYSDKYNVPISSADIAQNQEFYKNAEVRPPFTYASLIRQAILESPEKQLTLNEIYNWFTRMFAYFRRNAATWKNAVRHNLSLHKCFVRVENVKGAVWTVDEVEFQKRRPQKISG
Summary of the method: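 Amylose resin was used to capture complexes formed during 30 min at room temperature in Tris pH 7.5 buffer with NaCl and MgCl2 between 0.4 µM His6-MBP-tagged mouse FoxP3 or FoxP1 fragment lacking the N-terminus, expressed in E. coli, and 0.1 µM Klenow-filled double-stranded degenerate DNA library. After three washes, the DNA was released with proteinase K, barcoded by PCR and sequenced on Illumina. Binding is pooled-replicate reads-per-million enrichment, pull-down over input.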

How did the binding signal turn out when “GATGATTGTTCTCCCAGCTGATGAATTCCATAGCTCGAGTAAACAAATTTTCCTAATCTTTCTGTTCAAGCGCCATCTAC” was run?
Its binding signal is 0.79 RPM ratio (pull-down/input).

How did the binding signal turn out when “GATGATTGTTCTCCCAGCTGATGAATTTCCATGTTCGAGTAAACAAATTTTCCTAATCTTTCTGTTCAAGCGCCATCTAC” was run?
The binding signal was 0.909 RPM ratio (pull-down/input).

With “GATGATTGTTCTCCCAGCTGATGAATTAGGCACCTCGAGTAAACAAATTTTCCTAATCTTTCTGTTCAAGCGCCATCTAC” as the sequence, how does the binding signal read?
The binding signal was 0.847 RPM ratio (pull-down/input).

For “GATGATTGTTCTCCCAGCTGATGAATTGGCTCATTCGAGTAAACAAATTTTCCTAATCTTTCTGTTCAAGCGCCATCTAC”, which binding signal is on record?
Its binding signal is 0.903 RPM ratio (pull-down/input).

With “GATGATTGTTCTCCCAGCTGATGAATTCAATCTTTCGAGTAAACAAATTTTCCTAATCTTTCTGTTCAAGCGCCATCTAC” as the sequence, how does the binding signal read?
Its binding signal is 0.863 RPM ratio (pull-down/input).

Which binding signal does the source give for “GATGATTGTTCTCCCAGCTGATGAATTGGAGCAATCGAGTAAACAAATTTTCCTAATCTTTCTGTTCAAGCGCCATCTAC” here?
Its binding signal is 1.05 RPM ratio (pull-down/input).

Which binding signal does the source give for “GATGATTGTTCTCCCAGCTGATGAATTCTTGTTTTCGAGTAAACAAATTTTCCTAATCTTTCTGTTCAAGCGCCATCTAC” here?
The binding signal was 2.77 RPM ratio (pull-down/input).

“GATGATTGTTCTCCCAGCTGATGAATTTTATCGCTCGAGTAAACAAATTTTCCTAATCTTTCTGTTCAAGCGCCATCTAC” was tested. Which binding signal did it give?
Its binding signal is 0.912 RPM ratio (pull-down/input).

With “GATGATTGTTCTCCCAGCTGATGAATTGGCGCTTTCGAGTAAACAAATTTTCCTAATCTTTCTGTTCAAGCGCCATCTAC” as the sequence, how does the binding signal read?
Its binding signal is 0.936 RPM ratio (pull-down/input).

“GATGATTGTTCTCCCAGCTGATGAATTCCCATCGTCGAGTAAACAAATTTTCCTAATCTTTCTGTTCAAGCGCCATCTAC” was tested. Which binding signal did it give?
The binding signal was 0.811 RPM ratio (pull-down/input).

For “GATGATTGTTCTCCCAGCTGATGAATTTTCGAAGTCGAGTAAACAAATTTTCCTAATCTTTCTGTTCAAGCGCCATCTAC”, which binding signal is on record?
The binding signal was 0.853 RPM ratio (pull-down/input).

How did the binding signal turn out when “GATGATTGTTCTCCCAGCTGATGAATTTGACGATTCGAGTAAACAAATTTTCCTAATCTTTCTGTTCAAGCGCCATCTAC” was run?
Its binding signal is 0.901 RPM ratio (pull-down/input).

For “GATGATTGTTCTCCCAGCTGATGAATTACAAATGTCGAGTAAACAAATTTTCCTAATCTTTCTGTTCAAGCGCCATCTAC”, which binding signal is on record?
Its binding signal is 1.44 RPM ratio (pull-down/input).

How did the binding signal turn out when “GATGATTGTTCTCCCAGCTGATGAATTGTCAGCTTCGAGTAAACAAATTTTCCTAATCTTTCTGTTCAAGCGCCATCTAC” was run?
The binding signal was 0.971 RPM ratio (pull-down/input).

With “GATGATTGTTCTCCCAGCTGATGAATTTGGGTCATCGAGTAAACAAATTTTCCTAATCTTTCTGTTCAAGCGCCATCTAC” as the sequence, how does the binding signal read?
Its binding signal is 0.874 RPM ratio (pull-down/input).

Which binding signal does the source give for “GATGATTGTTCTCCCAGCTGATGAATTTGCCTGATCGAGTAAACAAATTTTCCTAATCTTTCTGTTCAAGCGCCATCTAC” here?
Its binding signal is 0.906 RPM ratio (pull-down/input).

For “GATGATTGTTCTCCCAGCTGATGAATTAACGGGATCGAGTAAACAAATTTTCCTAATCTTTCTGTTCAAGCGCCATCTAC”, which binding signal is on record?
The binding signal was 0.847 RPM ratio (pull-down/input).

“GATGATTGTTCTCCCAGCTGATGAATTGCCGTATTCGAGTAAACAAATTTTCCTAATCTTTCTGTTCAAGCGCCATCTAC” was tested. Which binding signal did it give?
The binding signal was 1.03 RPM ratio (pull-down/input).

Which binding signal does the source give for “GATGATTGTTCTCCCAGCTGATGAATTGTAACTGTCGAGTAAACAAATTTTCCTAATCTTTCTGTTCAAGCGCCATCTAC” here?
Its binding signal is 0.997 RPM ratio (pull-down/input).

Which binding signal does the source give for “GATGATTGTTCTCCCAGCTGATGAATTATCGTCATCGAGTAAACAAATTTTCCTAATCTTTCTGTTCAAGCGCCATCTAC” here?
Its binding signal is 1.1 RPM ratio (pull-down/input).

How did the binding signal turn out when “GATGATTGTTCTCCCAGCTGATGAATTAGCGACGTCGAGTAAACAAATTTTCCTAATCTTTCTGTTCAAGCGCCATCTAC” was run?
Its binding signal is 0.911 RPM ratio (pull-down/input).

With “GATGATTGTTCTCCCAGCTGATGAATTTGATTGCTCGAGTAAACAAATTTTCCTAATCTTTCTGTTCAAGCGCCATCTAC” as the sequence, how does the binding signal read?
The binding signal was 1.16 RPM ratio (pull-down/input).

For “GATGATTGTTCTCCCAGCTGATGAATTATGAGCCTCGAGTAAACAAATTTTCCTAATCTTTCTGTTCAAGCGCCATCTAC”, which binding signal is on record?
Its binding signal is 0.948 RPM ratio (pull-down/input).

How did the binding signal turn out when “GATGATTGTTCTCCCAGCTGATGAATTATTGCTCTCGAGTAAACAAATTTTCCTAATCTTTCTGTTCAAGCGCCATCTAC” was run?
The binding signal was 1.01 RPM ratio (pull-down/input).

With “GATGATTGTTCTCCCAGCTGATGAATTGAATCCATCGAGTAAACAAATTTTCCTAATCTTTCTGTTCAAGCGCCATCTAC” as the sequence, how does the binding signal read?
Its binding signal is 0.86 RPM ratio (pull-down/input).

“GATGATTGTTCTCCCAGCTGATGAATTGACAGAATCGAGTAAACAAATTTTCCTAATCTTTCTGTTCAAGCGCCATCTAC” was tested. Which binding signal did it give?
Its binding signal is 1.35 RPM ratio (pull-down/input).

With “GATGATTGTTCTCCCAGCTGATGAATTGGGTCACTCGAGTAAACAAATTTTCCTAATCTTTCTGTTCAAGCGCCATCTAC” as the sequence, how does the binding signal read?
Its binding signal is 0.888 RPM ratio (pull-down/input).

Which binding signal does the source give for “GATGATTGTTCTCCCAGCTGATGAATTTGTGCTTTCGAGTAAACAAATTTTCCTAATCTTTCTGTTCAAGCGCCATCTAC” here?
The binding signal was 1.42 RPM ratio (pull-down/input).

With “GATGATTGTTCTCCCAGCTGATGAATTTATCCAATCGAGTAAACAAATTTTCCTAATCTTTCTGTTCAAGCGCCATCTAC” as the sequence, how does the binding signal read?
Its binding signal is 1.2 RPM ratio (pull-down/input).

How did the binding signal turn out when “GATGATTGTTCTCCCAGCTGATGAATTCCCCCCATCGAGTAAACAAATTTTCCTAATCTTTCTGTTCAAGCGCCATCTAC” was run?
The binding signal was 0.861 RPM ratio (pull-down/input).

“GATGATTGTTCTCCCAGCTGATGAATTGACTGTGTCGAGTAAACAAATTTTCCTAATCTTTCTGTTCAAGCGCCATCTAC” was tested. Which binding signal did it give?
Its binding signal is 1.01 RPM ratio (pull-down/input).

“GATGATTGTTCTCCCAGCTGATGAATTTGAATCATCGAGTAAACAAATTTTCCTAATCTTTCTGTTCAAGCGCCATCTAC” was tested. Which binding signal did it give?
The binding signal was 0.913 RPM ratio (pull-down/input).

For “GATGATTGTTCTCCCAGCTGATGAATTTCCTCAGTCGAGTAAACAAATTTTCCTAATCTTTCTGTTCAAGCGCCATCTAC”, which binding signal is on record?
The binding signal was 0.873 RPM ratio (pull-down/input).

How did the binding signal turn out when “GATGATTGTTCTCCCAGCTGATGAATTAAGCCACTCGAGTAAACAAATTTTCCTAATCTTTCTGTTCAAGCGCCATCTAC” was run?
The binding signal was 0.893 RPM ratio (pull-down/input).

“GATGATTGTTCTCCCAGCTGATGAATTTTAGTATTCGAGTAAACAAATTTTCCTAATCTTTCTGTTCAAGCGCCATCTAC” was tested. Which binding signal did it give?
The binding signal was 1.12 RPM ratio (pull-down/input).

Which binding signal does the source give for “GATGATTGTTCTCCCAGCTGATGAATTTATCCCGTCGAGTAAACAAATTTTCCTAATCTTTCTGTTCAAGCGCCATCTAC” here?
The binding signal was 1.01 RPM ratio (pull-down/input).

Which binding signal does the source give for “GATGATTGTTCTCCCAGCTGATGAATTTGGGGTATCGAGTAAACAAATTTTCCTAATCTTTCTGTTCAAGCGCCATCTAC” here?
Its binding signal is 0.925 RPM ratio (pull-down/input).

“GATGATTGTTCTCCCAGCTGATGAATTGGTCCAATCGAGTAAACAAATTTTCCTAATCTTTCTGTTCAAGCGCCATCTAC” was tested. Which binding signal did it give?
Its binding signal is 0.951 RPM ratio (pull-down/input).

Which binding signal does the source give for “GATGATTGTTCTCCCAGCTGATGAATTTACATAATCGAGTAAACAAATTTTCCTAATCTTTCTGTTCAAGCGCCATCTAC” here?
The binding signal was 1.76 RPM ratio (pull-down/input).

Which binding signal does the source give for “GATGATTGTTCTCCCAGCTGATGAATTGACCTGCTCGAGTAAACAAATTTTCCTAATCTTTCTGTTCAAGCGCCATCTAC” here?
Its binding signal is 0.911 RPM ratio (pull-down/input).

— PMC12820563, “FoxP3 forms a head-to-head dimer in vivo and stabilizes its multimerization on adjacent microsatellites”
